The source gives no read counts; variants with many changes may rest on few reads.
B1: LINE1-mini (parent)
chain: GGCAGAGCUCAACACAGCGUGGCAAAGUGGCUGUGGCUAGACUGCC

Variants of: B1
Experiment: self-cleavage, relative activity (ratio to wild type); higher = more cleavage; in vitro, sequencing; the parent is a self-cleaving ribozyme

Row | Variant | self-cleavage
1 | A25U C31U G36U C37A G40A C46A | 0.09
2 | G27U U28C A41U | 0.46
3 | G27C G40A G44A | 0.09
4 | A25U U32C A39C C46A | 0.04
5 | G27C U34A G36U A41U | 0.08
6 | A26G U32C G33C | 0.02
7 | A26G G35A C37U U43A | 0.02
8 | G27C U28G G29C C31G | 0.1
9 | A25U U32A C45A | 0.14
10 | A26U G30U U32C | 0.2
11 | G27A U28C G33C C45G | 0.03
12 | A25U A26C U43A C46A | 0.05
13 | G27U U34C C45G | 0.08
14 | G27U G35A C37U G40U | 0.07
15 | A25U C37G U38G | 0.01
16 | A26C U32C G40U | 0.03
17 | G27U C31A C37G | 0.02
18 | G27U G40A A41C | 0.27
19 | G27A G36U C46A | 0.08
20 | A26U G35C C42A G44A | 0.14
21 | G27U A41G G44C C45G | 0.04

Row | Variant | self-cleavage
22 | A26U G35U U43G C45G | 0.1
23 | G27A U28A U34C | 0.16
24 | G27U U28A G30U | 0.28
25 | A26U U28C G30A | 0.37
26 | A26C G27U C37U C46G | 0
27 | G27C G33C C37G | 0.04
28 | A25U G29U U43A C45A | 0.03
29 | A26U G35A A39U | 0.13
30 | A26G U43A G44A | 0.18
31 | A26G C31U G36A | 0.07
32 | A26G G27C U28A G33A G40U C42G | 0.06
33 | G27C G36U A41U C42U | 0
34 | A26C G35U G36A | 0.08
35 | A25G U28C C37U | 0.05
36 | G27A G30U G35U U38A | 0.04
37 | G27U U32G U34A | 0.04
38 | A25U G33U G35C | 0.12
39 | G27A C37A C42A C46A | 0.02
40 | A25U U34C G36U G40A | 0.06
41 | A26U G30A U38A G40A C42G | 0.11
42 | A25U G27U U28C G30C G35C G40C C46G | 0.01

Row | Variant | self-cleavage
43 | A25U U28A G36C | 0.1
44 | A26C C31A C46A | 0.37
45 | A25U C37U A39U U43C | 0.02
46 | A26C U28A G33U | 0.07
47 | A26G G44A C46G | 0.04
48 | A25U G35U C37A | 0.03
49 | G27A U32G U43C C45G | 0.07
50 | A26U G27C U34A C37U | 0.04
51 | G27A G33A G35A A41U | 0.02
52 | A26G U38A A39G C42U | 0.1
53 | A26C G36A U43G C45U | 0
54 | A25U A26G G33A | 0.02
55 | G27U U32G U34A C42U U43A C46A | 0.21
56 | A25U U32G U38G | 0.02
57 | A26C G27C C42A | 0.21
58 | A25U U28C U32A | 0.21
59 | A25G U28A A39G C45U | 0.01
60 | A26U G33U G44C C45G | 0.04
61 | A25U G27U C46A | 0.19
62 | A26C G36A C37U U38G | 0.02
63 | A25G U32A G35U | 0.11

Row | Variant | self-cleavage
64 | G27C G33A C37A | 0.03
65 | A26G G29C G33U C46G | 0.03
66 | G27A U32A C37U G40A G44U | 0.09
67 | A26G G35U G36U | 0.13
68 | G27C U28C C46U | 0.08
69 | G27C U28G C37U | 0.01
70 | A25U G30C G33C | 0.01
71 | A26U U38A A41G C42U C46A | 0.04
72 | G27U A39G G40U | 0.15
73 | A25U U38A A39C | 0.12
74 | A26U U28C U38A C42U | 0.05
75 | A26U G30U C45U | 0.17
76 | G27C C37G A39G | 0.01
77 | A26C G29U U38C | 0.33
78 | A26G G35C C42G | 0
79 | A26C U32A U43C G44C | 0
80 | A26U G35U C42A | 0.05
81 | G27U U32C G36C | 0.08
82 | G27U U32C G36A | 0.09
83 | G27U U32C G36U | 0.06
